# The full ranking holds about 5,400 compounds; the median of “IFI” is about 2, and the highest 2% start at about 22. Some of the results follow.
# Assay: NOVARTIS: Inhibition Frequency Index (IFI) - the number of HTS assays where a compound showed > 50% inhibition/induction, expressed as a percentage of the number of assays in which the compound was tested.
# Type: functional
row,SMILES,IFI [%]
1,COCCNC(=O)CN1C(=O)CC(C)(C)Sc2ccccc21,0
2,Cc1cc(C)nc(Nc2nc(C)c3cc(C)c(C)cc3n2)n1,0
3,CN(c1ccc(Cl)cc1)S(=O)(=O)c1ccc2[nH]cc(C(=O)NCCC3=CCCCC3)c(=O)c2c1,7.69
4,Cc1ccc(Sc2c(C)nn(C(=O)c3cccnc3)c2C)cc1,0
5,O=C(N/C(=C/C=C/c1ccccc1)C(=O)N1CCOCC1)c1ccccc1,0
6,Cn1c(NN=Cc2ccccc2)cc(=O)n(C)c1=O,2.29
7,Brc1ccc2[nH]c3nc4ccccc4nc3c2c1,3.77
8,CCOc1ccc2[nH]c(=O)c(CN(Cc3ccccc3OC)C(C)=O)cc2c1,3.03
9,CCN1CCC(NCCC(c2ccccc2)c2ccccc2)CC1,4.1
10,Cc1cn2c3ccccc3n(CCN3CCCC3)c2n1,0
11,CN1CCN=C1c1ccc(NC(=O)c2ccc(C(=O)Nc3ccc(C4=NCCN4C)cc3)cc2)cc1,2.52
12,Nc1ccc(-c2nc(-c3ccc(N)cc3)c3ccccc3n2)cc1,0
13,CCOC(=O)c1c(NC(=O)c2ccccc2)sc2c(O)c(CN(CC)CC)ccc12,0
14,c1ccc(COCC[N+]2(Cc3ccccc3)CCCCC2)cc1,0.769
15,COc1cccc2c1C(=O)C1C(O)=C3C(=C(O)C1C2=O)CC(O)(C(C)=NN=C1CC(C)(C)N(O)C(C)(C)C1)CC3OC1CC(C)(N)C(O)CO1 (centres undefined),21.4
16,O=C(NCc1cc2cc3c(cc2nc1Cl)OCO3)c1ccco1,0
17,c1ccc2c(c1)ccc1cc3cccc[n+]3cc12,9.09
18,COc1ccc2[nH]c(=O)c(CN(C(=S)Nc3ccccc3OC)C3CCCC3)cc2c1,2.17
19,COc1ccc(C2CC(=O)C3=C(C2)NC(C)=C(C(=O)OC(C)C)C3c2ccc(Cl)cc2Cl)cc1OC (centres undefined),4.71
20,COc1ccc2cc(C)c3nnc(SCC(=O)N4CCN(C(=O)c5ccco5)CC4)n3c2c1,3.54
21,CCCCCCC(=O)Oc1ccccc1-c1nc2cc(C)ccn2c1NC(C)(C)CC(C)(C)C,2.13
22,COc1ccc(C=NNc2cc(C)nc(-c3ccccc3)n2)cc1OC,0

row,SMILES,IFI [%]
1,c1ccc(-c2ccccc2OCCNCCN2CCOCC2)cc1,0
2,COc1ccc(C2CC(=O)C3=C(C2)NC(C)=C(C(=O)OC(C)C)C3c2cccc(Br)c2)cc1OC (centres undefined),3.53
3,COc1nc(Nc2ccc(C(C)C)cc2)nc(OC)n1,2.27
4,Cc1cc(C)cc(Nc2cc(C)nc3nc(C)nn23)c1,0
5,Cc1ccc(-n2c(SCc3cc(=O)n4ccccc4n3)nc3ccsc3c2=O)cc1C,0
6,CCOc1ccccc1NC(=O)CN1CCN(C(=O)c2ccco2)CC1,0
7,O=C(ON(C(=O)c1ccc(F)cc1)C1C2CC3CC(C2)CC1C3)c1ccc(F)cc1 (centres undefined),0
8,COc1cccc(CC2(CO)CCCN(Cc3sc(N4CCCC4)nc3Cl)C2)c1 (centres undefined),0
9,Cc1ccc(NC(=O)N2CCN(C(=O)c3nc(-c4ccccc4)nc(C)c3C(=O)OC(C)C)CC2C)cc1 (centres undefined),0.935
10,COc1ccc(Nc2nc(NN=Cc3cccc([N+](=O)[O-])c3OC)nc(Nc3ccc([N+](=O)[O-])cc3)n2)cc1,6.49
11,COc1cc(C(=O)Nc2nnc(-c3ccccc3)o2)cc(OC)c1OC,0
12,CC(=O)Nc1ccc2c(c1)C(=O)N(C(CC(C)C)C(=O)NCC(=O)O)[C@@H](CCC(=O)OCc1ccccc1)C(=O)N2 (some centres undefined),2.44
13,COc1ccccc1N1CCN(C2CCN(C3CCC(c4ccccc4)CC3)CC2)CC1 (centres undefined),3.45
14,CC1=C(C(=O)OC2CCCC2)C(c2ccc(Cl)cc2)C2=C(CC(c3ccc(Cl)cc3)CC2=O)N1 (centres undefined),4.65
15,CCc1nc(N)nc(N)c1-c1ccc(Cl)cc1,4.12
16,O=C1c2ccccc2C2=Nc3ccccc3SC(c3cccc(F)c3)C12 (centres undefined),3.23
17,CC(C)C(=O)NC(Nc1cccc([N+](=O)[O-])c1)C(Cl)(Cl)Cl (centres undefined),0
18,O=C(Nc1ccc2nc3n(c(=O)c2c1)CCCCC3)C(=O)N1CCN(c2ccccc2)CC1,0
19,COc1ccc(-c2cc(C(F)(F)F)n3ncc(C(=O)Nc4cccc(Cl)c4Cl)c3n2)cc1OC,0
20,Cc1cc(/C=C2\SC(=Nc3ccccc3)NC2=O)c(C)n1-c1ccccc1,8.43
21,CC(C)(C)CC(=O)NCCCCNc1ccnc2cc(Cl)ccc12,1.87
22,Cc1cc(/C=C2\Sc3ccccc3N2C)[n+](C)c2ccccc12,20

row,SMILES,IFI [%]
1,COc1cc(NC(C)CCCN(Cc2ccc(F)cc2)C(=O)C(c2ccccc2)c2ccccc2)c2ncccc2c1 (centres undefined),4.67
2,Cc1sc2nc(C3CC3)n(C3CCN(C(=O)C4CC=CCC4)CC3)c(=O)c2c1C (centres undefined),0
3,CC(C)CC(=O)OC1C(N2CCCCC2)c2c(ccc(/C=C/C(=O)N3CCCCC3)c2O)OC1(C)C (centres undefined),0
4,Cc1ccc(-c2cn3c([n+]2-c2ccc(C)cc2)CCCCC3)cc1,15.4
5,CCOC(=O)c1cnc2c(C)cccc2c1Nc1cccc(C(C)=O)c1,0
6,CCOc1ccc2nc(C)cc(Nc3cccc(O)c3)c2c1,1.06
7,CCC(C)NC(=O)CN(c1cc(OC)ccc1OC)S(C)(=O)=O (centres undefined),4
8,Cc1ncc(CCCCN(C)C)c2c1[nH]c1ccccc12,11.1
9,OC(CN1CCN(C/C=C/c2ccccc2)CC1)Cn1c2ccc(Cl)cc2c2cc(Cl)ccc21 (centres undefined),0
10,Cc1nc2ccc(Br)cc2c(O)c1CC(C)C,0
11,CCCCOc1ccc(N2C(N)=NC(N)=NC2(C)C)cc1,0
12,CC1=C(C(=O)OC2CCCCC2)C(c2cccc([N+](=O)[O-])c2)C2=C(CCCC2=O)N1 (centres undefined),1.45
13,COC(=O)CC(NS(=O)(=O)c1ccc(OC)cc1)c1ccc2c(c1)OCO2 (centres undefined),0
14,CCCNC(=O)CCCCCSc1nc2ccccc2c(=O)n1-c1ccc(F)cc1,0.926
15,CCOC(=O)c1ccc2nc(-c3ccccc3)cc(O)c2c1,15.7
16,CC(C)C1=Nc2cc(C(N)=O)ccc2CN1C1CC1,4.94
17,O=C(Nc1cccc(-c2nc3ccccc3[nH]2)c1)c1cc(=O)c2ccccc2o1,2.33
18,CCCCN(C(=O)c1ccccc1C)c1nc(-c2cc(OC)ccc2OC)cs1,1.79
19,Nc1cc(C(=O)Nc2ccc(C3=NCCN3)cc2)ccc1C(=O)Nc1ccc(C2=NCCN2)cc1,2.59
20,CCOc1cccc(C2=Nc3cc(C(=O)NC(C)C)ccc3CN2CC2CCCCC2)c1,1.24

# Source: ChEMBL document CHEMBL1156829
